# Source: the supplement of paper PMC4723716
# Several values for one entry are separate records, joined by “and”; a condition that tells them apart may be missing. Identical values can stand only once. ± gives the uncertainty stated by the source. The full ranking holds about 9,900 compounds; the median of “viability index relative to DMSO control” is about 1, and the lowest 2% start at about 0.85. Some of the results follow.
# System: Plasmodium falciparum NF54 stage V gametocytes
# Test: viability index relative to DMSO control (fraction); higher = less gametocyte killing
# Conditions: 2.5 µM, library set: Broad Institute DOS, incubation time: 72 h
# How it was run: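 P. falciparum NF54 stage V gametocytes (serum-free medium, 0.75% gametocytemia, 1.25% hematocrit) were exposed to compound at 2.5 µM for 72 hr at 37°C under low oxygen, then stained with MitoTracker Red CMXRos and saponin for one to two hours. Red particles of 20–70 µm2 in one field per well were counted, and the viability index is that count scaled to the plate mean of solvent-only wells.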
row,Compound,viability index
1,COc1ccc2c3c([nH]c2c1)[C@H](CO)N(Cc1ccccn1)C[C@]31CN(Cc2cccc(F)c2)C1,1.015 ± 0.0049
2,Cc1noc(C)c1NC(=O)Nc1ccc2c(c1)C(=O)N([C@@H](C)CO)C[C@@H](C)[C@H](CN(C)Cc1ccc3c(c1)OCO3)OCCCC[C@@H](C)O2,1.09 ± 0.094
3,CN1C(=O)c2cc(NC(=O)c3cnccn3)ccc2OC[C@@H]2O[C@H](CC(=O)N[C@@H]3CCN(Cc4ccccc4)C3)CC[C@@H]21,1.04 ± 0.021
4,CC(C)(C)[S@@](=O)N1Cc2cc(C(=O)NCc3ccccn3)nc(-c3cccc(-c4ccccc4F)c3)c2[C@H]1CCO,0.93 ± 0.015
5,C/C=C/c1ccc2n(c1=O)C[C@H]1[C@H](CO)[C@@H](C(=O)NCc3cccc(OC)c3)N[C@@H]21.C/C=C\c1ccc2n(c1=O)C[C@H]1[C@H](CO)[C@@H](C(=O)NCc3cccc(OC)c3)N[C@@H]21,1.1 ± 0.064
6,COc1cccc(NC(=O)C[C@@H]2CC[C@H]3[C@H](COc4ccc(NC(=O)C5CC5)cc4C(=O)N3C)O2)c1,1.14 ± 0.015
7,C/C=C/c1ccc2c(c1)O[C@H](CN(C)C(=O)Nc1ccc(OC)cc1)[C@@H](C)CN([C@@H](C)CO)S2(=O)=O,0.994 ± 0.072
8,CCC(=O)N1[C@H](CO)[C@H](c2ccccc2)[C@@H]1CN(CC)C(=O)c1cccc(F)c1,1.04 ± 0.05
9,O=C(C1CCC1)N1C[C@H]2[C@@H](c3ccccc31)[C@H](CO)N2C(=O)Nc1cccc(F)c1,0.966 ± 0.036
10,COc1ccc(NC(=O)N[C@H]2CC[C@H](CCNC(=O)CN3CCOCC3)O[C@@H]2CO)cc1,0.944 ± 0.048
11,O=C(C1CCOCC1)N1CC(=O)N2[C@H](CO)[C@@H](c3ccc(C#CCc4ccccc4)cc3)[C@H]2C1,1.02 ± 0.0049
12,CN1C(=O)c2cc(NC(=O)C3CCOCC3)ccc2OC[C@H]2O[C@@H](CC(=O)NCC3CCCCC3)CC[C@@H]21,1.13 ± 0.071
13,COCC(=O)NC[C@H]1[C@H](c2ccccc2)[C@@H](CO)N1C(=O)c1ccccc1,1.05 ± 0.02
14,COc1ccc2c3c([nH]c2c1)[C@@H](CO)N(Cc1cc(OC)cc(OC)c1)C[C@]31CN(C1)S(=O)(=O)c1cccc(F)c1,0.996 ± 0.063
15,CO[C@H](C(=O)N(C)C[C@H]1OCc2ccccc2-c2ccccc2C(=O)N([C@H](C)CO)C[C@H]1C)c1ccccc1,1.04 ± 0.13
16,O=S(=O)(c1ccccc1F)N1[C@@H]2CNC[C@H]1[C@@H]2c1ccc(-c2cncnc2)cc1,0.963 ± 0.052
17,CC(C)CC#Cc1ccc([C@H]2[C@@H](CO)N3C(=O)CN(S(=O)(=O)c4cccc(F)c4)C[C@H]23)cc1,0.956 ± 0.059
18,CC(C)[C@@H]1COCc2cn(nn2)CC[C@H](Cc2ccc(-c3ccccc3)cc2)C(=O)N1,1.04 ± 0.11
19,COc1ccc2c3c([C@H](CO)N(Cc4ccncc4)C[C@]33CN(C3)C(=O)Nc3cccc(F)c3)n(C)c2c1,1.03 ± 0.026
20,CN1C(=O)c2cc(NC(=O)c3ccc(C(F)(F)F)cc3)ccc2OC[C@@H]2O[C@@H](CC(=O)NCc3ccc4c(c3)OCO4)CC[C@H]21,1.08 ± 0.086
21,C[C@@H](NC(=O)C[C@@H]1C=C[C@@H](NC(=O)c2cccnc2)[C@H](CO)O1)c1ccccc1,1.09 ± 0.021
22,C[C@@H]1CN([C@H](C)CO)C(=O)c2cccc(NS(=O)(=O)c3cn(C)cn3)c2O[C@H]1CN(C)Cc1ccc(Oc2ccccc2)cc1,0.985 ± 0.069

row,Compound,viability index
1,COc1ccc(NC(=O)Nc2ccc3c(c2)[C@H]2C[C@@H](CC(=O)NCC(F)(F)F)O[C@@H](CO)[C@H]2O3)cc1,1.14 ± 0.05
2,CN(C)C(=O)[C@H]1[C@H](CO)[C@H]2Cn3c(ccc(/C=C/c4ccccc4)c3=O)[C@H]2N1C(=O)c1cccnc1,0.956 ± 0.03
3,O=C(C[C@H]1C[C@H]2c3cc(NC(=O)Nc4ccccc4F)ccc3O[C@H]2[C@@H](CO)O1)NCc1ccccn1,1.01 ± 0.024
4,CN(C)c1ccc2c(c1)[C@@H]1C[C@@H](CC(=O)NCc3ccccn3)O[C@@H](CO)[C@@H]1O2,1.04 ± 0.057
5,O=C(NC1Cc2ccccc2C1)[C@H]1[C@H](CO)[C@H]2Cn3c(cccc3=O)[C@H]2N1C(=O)c1cnccn1,1.07 ± 0.044
6,CC(=O)N1CC2(C1)[C@@H](c1ccccc1)[C@@H](CO)N2C(=O)Cc1ccccc1,1.063 ± 0.0082
7,CCCN1C[C@@H](C)[C@@H](OC)CN(C)C(=O)c2cc(NS(=O)(=O)c3ccccc3)ccc2OC[C@H]1C,1.049 ± 0.0032
8,CCc1csc(N2[C@@H](C#N)[C@@H](c3ccccc3-c3ccc(F)cc3)[C@@H]2CO)n1,1.09 ± 0.08
9,COc1ccccc1NC(=O)N1C[C@H](O)COC[C@@H]2O[C@H](CC(=O)NCCc3ccncc3)CC[C@H]21,1.03 ± 0.026
10,C[C@@H]1CN([C@H](C)CO)C(=O)c2ccccc2-c2ccccc2CO[C@@H]1CN(C)C(=O)[C@@H](Cc1ccccc1)N(C)C,1.01 ± 0.051
11,COc1ccccc1NC(=O)N1C[C@@H]2N[C@H](C1)[C@H]2c1ccc(/C=C/c2ccccc2)cc1,0.976 ± 0.048
12,O=C(Nc1ccc(F)cc1)N1CC(=O)N2[C@H](C1)[C@H](c1ccc(-c3cccc(F)c3)cc1)[C@@H]2CO,1.06 ± 0.015
13,COc1ccc2c3c([nH]c2c1)[C@H](CO)N(C[C@]31CCN(CC1)C(C)=O)C(C)=O,1.035 ± 0.0018
14,C[C@@H](NC(=O)C[C@@H]1C=C[C@@H](NS(=O)(=O)c2cccc(F)c2)[C@H](CO)O1)c1ccccc1,1.09 ± 0.027
15,CO[C@@H]1CN(C)C(=O)c2cc(NC(=O)Nc3cc(F)ccc3F)ccc2OC[C@H](C)NC[C@@H]1C,1.03 and 1.14
16,COc1ccc2c3c([nH]c2c1)[C@H](CO)N(Cc1ccccc1)C[C@]31CN(C1)C(=O)Nc1cccc(F)c1,1 ± 0.02
17,COCC(=O)Nc1ccc2c(c1)[C@@H]1C[C@H](CC(=O)N3CCOCC3)O[C@H](CO)[C@@H]1O2,1.1 ± 0.016
18,O=C(Nc1ccc(F)cc1)N1C[C@@H]2[C@H](c3ccccc31)[C@@H](CO)N2Cc1ccccc1Cl,1.13 ± 0.043
19,C[C@@H]1CN([C@H](C)CO)C(=O)CCCn2nncc2CO[C@@H]1CN(C)C(=O)Nc1ccccc1C(F)(F)F,0.97 ± 0.051
20,CCCC(=O)Nc1ccc2c(c1)C(=O)N(C)[C@@H]1CC[C@@H](CC(=O)NCc3cccc(F)c3)O[C@H]1CO2,0.991 ± 0.12
21,O=C(c1cccc(F)c1)N1C[C@H]2[C@@H](c3ccccc31)[C@@H](CO)N2Cc1cocn1,0.997 ± 0.053
22,COC(=O)C[C@@H]1CC[C@@H]2[C@H](COc3ccc(NC(=O)Nc4c(C)noc4C)cc3C(=O)N2C)O1,0.966 ± 0.053
